# In ChEMBL document CHEMBL5606458, “ASAP - ZIKV NS2B-NS3 protease fluorescence single point” (2024):
# The campaign covered roughly 2,700 compounds. About 160 (5.9%) showed an effect of 50% or more. Some of the results follow.
# Target: Nonstructural protein 3 (Zika virus) (UniProt A0A024AXB9)
# [1] = PRVABC59, Concentration 15.0 uM, Number of replicates 1.0
# [2] = PRVABC59, Concentration 50.0 uM, Number of replicates 1.0
# [3] = PRVABC59, Concentration 10.0 uM, Number of replicates 1.0
# UniProt A0A024AXB9, sequence (A0A024AXB9 as listed by the source): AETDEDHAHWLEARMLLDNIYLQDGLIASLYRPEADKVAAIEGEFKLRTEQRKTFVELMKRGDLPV
smiles,measurement,setting,value
O=C(Nc1ccc(O)cc1[N+](=O)[O-])c1cc(Cl)ccc1NS(=O)(=O)c1ccc(Oc2ccccc2Cl)cc1,inhibition,[1],32.2%
CCN(CC)C(=O)C1CCN(C(=O)c2cc(Cl)ccc2NS(=O)(=O)c2ccc(Oc3ccccc3Cl)cc2)CC1,inhibition,[1],-1.16%
CCCCCN(CCCCC)C(=O)c1cc(Cl)ccc1NS(=O)(=O)c1ccc(Oc2ccccc2Cl)cc1,inhibition,[1],19.4%
COc1cccc(OCCCNC(=O)c2cc(Cl)ccc2NS(=O)(=O)c2ccc(Oc3ccccc3Cl)cc2)c1,inhibition,[1],14.5%
Cc1ccsc1CN(CC(C)C)C(=O)C1CCN(c2ccc(C=O)cc2)CC1,inhibition,[2],28.3%
COc1ccc(F)cc1-c1ccccc1C(=O)Nc1cnn(C)c1,inhibition,"PRVABC59, Concentration 49.5 uM, Number of replicates 2.0, Standard deviation 2.786855749304864 %",-3%
same,inhibition,"PRVABC59, Concentration 99.01 uM, Number of replicates 2.0, Standard deviation 3.2540561676160196 %",-2.51%
same,inhibition,"PRVABC59, Concentration 198.0 uM, Number of replicates 2.0, Standard deviation 1.7244181606296412 %",-2.19%
C[C@H](NC(=O)c1cc(Cl)ccc1NS(=O)(=O)c1ccc(Oc2ccccc2Cl)cc1)c1ccc(N2CCOCC2)cc1,inhibition,[1],18.7%
O=C(c1cc(Cl)ccc1NS(=O)(=O)c1ccc(Oc2ccccc2Cl)cc1)N1CCN(C(=O)C2CC2)CC1,inhibition,[1],3.67%
CN(C[C@H](O)[C@@H](O)[C@H](O)[C@H](O)CO)C(=O)C1CCN(c2ccc(C=O)cc2)CC1,inhibition,[2],14.4%
O=Cc1ccc(N2CCC(C(=O)N(CC(F)(F)F)CC(F)(F)F)CC2)cc1,inhibition,[2],20.6%
CN(C)CCN(Cc1ccccc1)C(=O)C1CCN(c2ccc(C=O)cc2)CC1,inhibition,[2],25.2%
COc1cccc([C@H](C)NC(=O)c2cc(Cl)ccc2NS(=O)(=O)c2ccc(Oc3ccccc3Cl)cc2)c1,inhibition,[1],33.8%
COc1cccc(CCNC(=O)C2CCN(c3ccc(C=O)cc3)CC2)c1OC,inhibition,[2],27.5%
O=C(NCc1c(F)cccc1C(F)(F)F)c1cc(Cl)ccc1NS(=O)(=O)c1ccc(Oc2ccccc2Cl)cc1,inhibition,[1],36.4%
O=Cc1ccc(N2CCC(C(=O)NC3CCN(Cc4ccccc4)CC3)CC2)cc1,inhibition,[2],26.4%
c1cnc2c(C3CCN(Cc4cnn5ccccc45)CC3)c[nH]c2c1,inhibition,"PRVABC59, Concentration 49.5 uM, Number of replicates 2.0, Standard deviation 0.057048794032587856 %",1.91%
same,inhibition,"PRVABC59, Concentration 99.01 uM, Number of replicates 2.0, Standard deviation 0.7157030524088295 %",5.72%
same,inhibition,"PRVABC59, Concentration 198.0 uM, Number of replicates 2.0, Standard deviation 2.453097637639096 %",10.7%
O=C(Nc1cccc(C(F)(F)F)n1)c1cc(Cl)ccc1NS(=O)(=O)c1ccc(Oc2ccccc2Cl)cc1,inhibition,[1],23.7%
O=C(c1cc(Cl)ccc1NS(=O)(=O)c1ccc(Oc2ccccc2Cl)cc1)N1CCC(c2nnc3n2CCCCC3)CC1,inhibition,[1],0.963%
O=C(NC[C@H]1COc2ccccc2O1)c1cc(Cl)ccc1NS(=O)(=O)c1ccc(Oc2ccccc2Cl)cc1,inhibition,[1],37.9%
O=C(Nc1cccc2cccnc12)C1CCNCC1,inhibition,"PRVABC59, Concentration 49.95 uM, Number of replicates 2.0, Standard deviation 0.5440976068370852 %",42.6%
same,inhibition,"PRVABC59, Concentration 99.9 uM, Number of replicates 2.0, Standard deviation 0.5440976068370852 %",92%
Cc1c(Cl)ccc(CNCc2nnc3ccccn23)c1O,inhibition,"PRVABC59, Concentration 49.5 uM, Number of replicates 2.0, Standard deviation 0.6675735430455111 %",-2.02%
same,inhibition,"PRVABC59, Concentration 99.01 uM, Number of replicates 2.0, Standard deviation 1.8143878580340882 %",-0.158%
same,inhibition,"PRVABC59, Concentration 198.0 uM, Number of replicates 2.0, Standard deviation 1.5352512085647565 %",0.893%
CCN(Cc1cnn(CC)c1)C(=O)c1cc(Cl)ccc1NS(=O)(=O)c1ccc(Oc2ccccc2Cl)cc1,inhibition,[1],19.6%
CCS(=O)(=O)c1ccc(CNC(=O)C2CCN(c3ccc(C=O)cc3)CC2)cc1,inhibition,[3],21.1%
C[C@@H](CCNC(=O)c1cc(Cl)ccc1NS(=O)(=O)c1ccc(Oc2ccccc2Cl)cc1)N1CCOCC1,inhibition,[1],4.81%
O=C(c1cc(Cl)ccc1NS(=O)(=O)c1ccc(Oc2ccccc2Cl)cc1)N1CCN(c2ccccc2Cl)CC1,inhibition,[1],6.58%
Cc1cc(N)c2cccc(Br)c2n1,inhibition,"PRVABC59, Concentration 99.9 uM, Number of replicates 2.0, Standard deviation 11.691793041285315 %",-5.99%
O=Cc1ccc(N2CCC(C(=O)NCc3ccc(Br)cn3)CC2)cc1,inhibition,[3],22.1%
CN(CCc1ccccc1F)C(=O)c1cc(Cl)ccc1NS(=O)(=O)c1ccc(Oc2ccccc2Cl)cc1,inhibition,[1],27.9%
O=C(NCc1cccc([N+](=O)[O-])c1)c1cc(Cl)ccc1NS(=O)(=O)c1ccc(Oc2ccccc2Cl)cc1,inhibition,[1],43.8%
CC(C)Nc1nc2cc(NCc3cccc(C(N)=O)c3)ccc2[nH]1,inhibition,"PRVABC59, Concentration 49.5 uM, Number of replicates 2.0, Standard deviation 1.847825397474994 %",-6.97%
same,inhibition,"PRVABC59, Concentration 99.01 uM, Number of replicates 2.0, Standard deviation 1.776755358467196 %",-9.42%
Cc1cc(C)nc(CCNC(=O)C2CCN(c3ccc(C=O)cc3)CC2)n1,inhibition,[2],15.6%
CC(C)(CO)NC(=O)c1cc(Cl)cc(NC(=O)c2ccc(CO)s2)c1,inhibition,"PRVABC59, Concentration 49.5 uM, Number of replicates 2.0, Standard deviation 3.0337727241311483 %",1.34%
same,inhibition,"PRVABC59, Concentration 99.01 uM, Number of replicates 2.0, Standard deviation 3.2258798614215776 %",2.04%
same,inhibition,"PRVABC59, Concentration 198.0 uM, Number of replicates 2.0, Standard deviation 3.5796614008083747 %",2.59%
N#Cc1cccc(NC(=O)[C@@H](NC(=O)c2ccc(Oc3ccc(C(F)(F)F)cc3)cc2)c2ccc(OCc3ccccc3)cc2)c1,inhibition,"PRVABC59, Concentration 49.5 uM, Number of replicates 2.0, Standard deviation 1.5222408241409437 %",-3.85%
same,inhibition,"PRVABC59, Concentration 99.01 uM, Number of replicates 2.0, Standard deviation 0.6339358903678755 %",1.37%
same,inhibition,"PRVABC59, Concentration 198.0 uM, Number of replicates 2.0, Standard deviation 2.432405937390612 %",0.989%
O=C(NCc1cc(Cl)cc(Cl)c1)c1cc(Cl)ccc1NS(=O)(=O)c1ccc(Oc2ccccc2Cl)cc1,inhibition,[1],27.8%
O=C(O)c1cccc(NC(=O)c2ccncc2)c1,inhibition,"PRVABC59, Concentration 49.5 uM, Number of replicates 2.0, Standard deviation 3.2025175998741853 %",-2.1%
same,inhibition,"PRVABC59, Concentration 99.01 uM, Number of replicates 2.0, Standard deviation 1.8056969671368994 %",-0.387%
same,inhibition,"PRVABC59, Concentration 198.0 uM, Number of replicates 2.0, Standard deviation 2.642129119196154 %",3.46%
CC(C)(CNC(=O)C1CCN(c2ccc(C=O)cc2)CC1)c1cccc(Cl)c1,inhibition,[2],-1.58%
O=C(c1cc(Cl)ccc1NS(=O)(=O)c1ccc(Oc2ccccc2Cl)cc1)N1CC(OCc2ccccc2)C1,inhibition,[1],-2.94%
CCc1nc(CNC(=O)[C@]2(c3ccc(F)cc3)CCCNC2)n[nH]1,inhibition,"PRVABC59, Concentration 49.5 uM, Number of replicates 2.0, Standard deviation 1.2409927756118981 %",-0.431%
same,inhibition,"PRVABC59, Concentration 99.01 uM, Number of replicates 2.0, Standard deviation 1.3083535020923887 %",-0.79%
same,inhibition,"PRVABC59, Concentration 198.0 uM, Number of replicates 2.0, Standard deviation 1.945690126836199 %",-1.8%
O=C(O)c1cccc(NC(=O)c2cccs2)c1,inhibition,"PRVABC59, Concentration 49.5 uM, Number of replicates 2.0, Standard deviation 0.016604109219079045 %",0.258%
same,inhibition,"PRVABC59, Concentration 99.01 uM, Number of replicates 2.0, Standard deviation 0.9443586407123139 %",3.27%
same,inhibition,"PRVABC59, Concentration 198.0 uM, Number of replicates 2.0, Standard deviation 0.8281299393990333 %",6.47%
O=C(Nc1ccc2c(c1)C(=O)NC2=O)c1cc(Cl)ccc1NS(=O)(=O)c1ccc(Oc2ccccc2Cl)cc1,inhibition,[1],25.3%
CNC(=O)c1ccc2n1CCN(S(=O)(=O)c1cc(-c3ccccc3)no1)[C@@H]2C,inhibition,"PRVABC59, Concentration 49.5 uM, Number of replicates 2.0, Standard deviation 0.4667368978079452 %",4.35%
same,inhibition,"PRVABC59, Concentration 99.01 uM, Number of replicates 2.0, Standard deviation 0.4323885649707189 %",1.78%
same,inhibition,"PRVABC59, Concentration 198.0 uM, Number of replicates 2.0, Standard deviation 1.0122742409901626 %",-4.74%
O=C(NCC1(c2ccncc2F)CCC1)[C@@]1(c2ccc(F)cc2)CCCNC1,inhibition,"PRVABC59, Concentration 49.5 uM, Number of replicates 2.0, Standard deviation 0.41622446358173754 %",0.26%
same,inhibition,"PRVABC59, Concentration 99.01 uM, Number of replicates 2.0, Standard deviation 0.6101932219025366 %",2.25%
same,inhibition,"PRVABC59, Concentration 198.0 uM, Number of replicates 2.0, Standard deviation 0.24650191266214933 %",3.53%
COc1cc(CNC(=O)c2cc(Cl)ccc2NS(=O)(=O)c2ccc(Oc3ccccc3Cl)cc2)cc(OC)c1,inhibition,[1],28%
O=Cc1ccc(N2CCC(C(=O)NCc3cccc(-n4cccn4)c3)CC2)cc1,inhibition,[3],24.1%
Cc1cc(CO)c2cccc(Cc3cccc(C(=O)N4CCC(C(=O)O)CC4)c3)c2n1,inhibition,"PRVABC59, Concentration 49.95 uM, Number of replicates 2.0, Standard deviation 0.6921367263576601 %",-3.78%
same,inhibition,"PRVABC59, Concentration 99.9 uM, Number of replicates 2.0, Standard deviation 0.04719115192807187 %",-2.12%
COc1cc(C(=O)O)nc(N2CCN(C(=O)OC(C)(C)C)CC2)n1,inhibition,"PRVABC59, Concentration 49.5 uM, Number of replicates 2.0, Standard deviation 2.4331094631226677 %",-1.92%
same,inhibition,"PRVABC59, Concentration 99.01 uM, Number of replicates 2.0, Standard deviation 1.8290127301736714 %",-0.266%
same,inhibition,"PRVABC59, Concentration 198.0 uM, Number of replicates 2.0, Standard deviation 0.8591132678511498 %",3.66%
CCCC[C@@H](CC)CN(C[C@@H](CC)CCCC)C(=O)c1cc(Cl)ccc1NS(=O)(=O)c1ccc(Oc2ccccc2Cl)cc1,inhibition,[1],15.5%
CC(C)(C)c1cc(NC(=O)c2cc(Cl)ccc2NS(=O)(=O)c2ccc(Oc3ccccc3Cl)cc2)n(-c2ccccc2)n1,inhibition,[1],28.4%
c1ccc(-n2cc(CN3CCC(c4c[nH]c5cccnc45)CC3)cn2)nc1,inhibition,"PRVABC59, Concentration 49.5 uM, Number of replicates 2.0, Standard deviation 0.39150698592554617 %",0.383%
same,inhibition,"PRVABC59, Concentration 99.01 uM, Number of replicates 2.0, Standard deviation 1.6352946876495957 %",4.21%
same,inhibition,"PRVABC59, Concentration 198.0 uM, Number of replicates 2.0, Standard deviation 1.1112775253170408 %",9.97%
O=C(NCc1cncc(Br)c1)c1cc(Cl)ccc1NS(=O)(=O)c1ccc(Oc2ccccc2Cl)cc1,inhibition,[1],42.6%
Cc1cc(CO)c2cccc(Cc3cccc(NC(=O)[C@@H](N)CCN)c3)c2n1,inhibition,"PRVABC59, Concentration 49.95 uM, Number of replicates 2.0, Standard deviation 2.8196733928978714 %",-9.34%
same,inhibition,"PRVABC59, Concentration 99.9 uM, Number of replicates 2.0, Standard deviation 2.5244723140679306 %",3.67%
O=C(NCCn1ncc2ccccc2c1=O)c1cc(Cl)ccc1NS(=O)(=O)c1ccc(Oc2ccccc2Cl)cc1,inhibition,[1],21.4%
